Holding throughout (experiment): pull-down; C-terminal His-tagged PBP expressed from pBAD (1% arabinose, 30°C, 3 h) in MG1655 strains with chromosomal Flag-tagged DD-CPase; supernatant of disrupted cells on Talon metal affinity resin; binding buffer (50 mM Tris-HCl pH 8.0, 200 mM NaCl) without 1% n-dodecyl-β-D-maltoside; eluate blotted with anti-Flag; nontagged PBPs as control
The target in assay [1] is T1, C-terminal His-tagged PBP3 (E. coli) (UniProt P0AD68).
T1 sequence: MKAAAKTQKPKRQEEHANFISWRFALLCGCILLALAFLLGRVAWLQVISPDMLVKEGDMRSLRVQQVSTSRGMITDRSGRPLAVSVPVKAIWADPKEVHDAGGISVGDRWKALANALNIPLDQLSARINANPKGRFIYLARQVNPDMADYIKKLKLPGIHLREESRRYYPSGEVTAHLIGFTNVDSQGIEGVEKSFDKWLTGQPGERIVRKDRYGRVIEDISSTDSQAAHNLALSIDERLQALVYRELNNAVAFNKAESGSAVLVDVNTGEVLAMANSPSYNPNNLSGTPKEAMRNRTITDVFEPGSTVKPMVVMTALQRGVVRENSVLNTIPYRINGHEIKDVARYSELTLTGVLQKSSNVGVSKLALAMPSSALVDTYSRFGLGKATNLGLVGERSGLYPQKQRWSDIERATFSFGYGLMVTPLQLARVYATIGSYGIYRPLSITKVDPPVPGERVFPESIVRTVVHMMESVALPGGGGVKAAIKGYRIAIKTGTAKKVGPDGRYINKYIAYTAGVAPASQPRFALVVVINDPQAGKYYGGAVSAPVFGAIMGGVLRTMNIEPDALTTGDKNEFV

The target in assay [2] is T2, C-terminal His-tagged PBP1a (E. coli) (UniProt P02918).
T2 sequence: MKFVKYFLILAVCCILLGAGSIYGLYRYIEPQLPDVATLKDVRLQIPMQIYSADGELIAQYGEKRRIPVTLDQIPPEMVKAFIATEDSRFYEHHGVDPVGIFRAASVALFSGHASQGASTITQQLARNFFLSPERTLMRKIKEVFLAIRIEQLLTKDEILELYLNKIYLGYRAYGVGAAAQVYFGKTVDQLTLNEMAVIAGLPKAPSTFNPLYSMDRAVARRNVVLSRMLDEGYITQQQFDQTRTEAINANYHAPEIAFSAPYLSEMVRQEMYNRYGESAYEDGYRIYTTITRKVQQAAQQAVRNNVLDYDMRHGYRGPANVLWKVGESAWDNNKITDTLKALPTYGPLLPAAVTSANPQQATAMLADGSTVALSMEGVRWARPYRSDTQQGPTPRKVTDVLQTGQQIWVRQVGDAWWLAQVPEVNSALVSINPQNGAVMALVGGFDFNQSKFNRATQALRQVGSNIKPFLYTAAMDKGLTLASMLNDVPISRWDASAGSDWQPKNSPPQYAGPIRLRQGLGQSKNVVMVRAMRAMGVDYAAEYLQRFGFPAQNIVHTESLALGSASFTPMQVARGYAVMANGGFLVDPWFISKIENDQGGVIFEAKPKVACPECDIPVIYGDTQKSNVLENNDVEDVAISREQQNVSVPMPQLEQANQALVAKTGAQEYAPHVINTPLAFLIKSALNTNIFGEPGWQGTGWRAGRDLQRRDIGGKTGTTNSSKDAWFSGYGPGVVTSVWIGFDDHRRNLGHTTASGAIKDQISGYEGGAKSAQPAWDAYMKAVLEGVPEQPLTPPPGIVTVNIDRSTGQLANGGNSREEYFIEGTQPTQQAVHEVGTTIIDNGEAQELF

Assay [3] addresses T3, C-terminal His-tagged PBP1b (E. coli) (UniProt P02919).
T3 sequence: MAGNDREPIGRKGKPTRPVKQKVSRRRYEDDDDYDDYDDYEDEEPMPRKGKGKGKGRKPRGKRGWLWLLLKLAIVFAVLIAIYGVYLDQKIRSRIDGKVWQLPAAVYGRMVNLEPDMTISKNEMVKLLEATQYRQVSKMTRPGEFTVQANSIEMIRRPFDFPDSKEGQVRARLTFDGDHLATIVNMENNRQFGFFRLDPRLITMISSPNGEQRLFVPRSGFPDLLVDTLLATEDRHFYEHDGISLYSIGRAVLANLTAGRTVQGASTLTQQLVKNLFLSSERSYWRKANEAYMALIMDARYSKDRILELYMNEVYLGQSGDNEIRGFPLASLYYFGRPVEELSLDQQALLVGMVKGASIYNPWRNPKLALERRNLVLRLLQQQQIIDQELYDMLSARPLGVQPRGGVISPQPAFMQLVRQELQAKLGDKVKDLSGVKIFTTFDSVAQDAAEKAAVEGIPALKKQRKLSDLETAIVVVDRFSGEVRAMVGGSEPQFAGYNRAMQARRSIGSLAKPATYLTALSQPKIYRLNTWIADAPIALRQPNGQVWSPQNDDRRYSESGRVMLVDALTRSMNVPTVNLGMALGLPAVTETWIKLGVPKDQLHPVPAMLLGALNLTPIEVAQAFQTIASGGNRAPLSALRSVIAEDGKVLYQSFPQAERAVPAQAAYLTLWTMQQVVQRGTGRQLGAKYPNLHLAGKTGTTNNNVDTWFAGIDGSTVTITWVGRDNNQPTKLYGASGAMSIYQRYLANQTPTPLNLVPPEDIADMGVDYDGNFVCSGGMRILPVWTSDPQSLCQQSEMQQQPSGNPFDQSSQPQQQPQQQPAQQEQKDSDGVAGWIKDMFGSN

In assay [4] the target is T4, C-terminal His-tagged PBP2 (E. coli) (UniProt P0AD65).
T4 sequence: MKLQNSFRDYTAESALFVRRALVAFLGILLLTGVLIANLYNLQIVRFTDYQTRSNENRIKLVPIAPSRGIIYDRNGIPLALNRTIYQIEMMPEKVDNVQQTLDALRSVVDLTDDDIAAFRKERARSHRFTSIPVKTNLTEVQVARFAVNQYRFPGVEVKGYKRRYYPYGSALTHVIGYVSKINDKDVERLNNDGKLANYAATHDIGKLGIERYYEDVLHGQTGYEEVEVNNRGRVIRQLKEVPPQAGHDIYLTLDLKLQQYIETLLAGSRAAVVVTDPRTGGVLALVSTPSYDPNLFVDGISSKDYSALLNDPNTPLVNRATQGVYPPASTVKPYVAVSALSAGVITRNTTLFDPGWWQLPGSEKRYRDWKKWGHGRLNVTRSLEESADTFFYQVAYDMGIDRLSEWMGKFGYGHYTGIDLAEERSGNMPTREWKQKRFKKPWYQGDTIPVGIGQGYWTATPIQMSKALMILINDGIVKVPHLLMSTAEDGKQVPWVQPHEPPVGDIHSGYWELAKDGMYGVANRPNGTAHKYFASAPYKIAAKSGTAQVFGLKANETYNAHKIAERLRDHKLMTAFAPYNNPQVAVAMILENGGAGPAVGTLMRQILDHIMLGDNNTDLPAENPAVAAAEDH

For three molecules, binding results are on record in PMC10269652.

Results are given in words; binding and its absence hold for the method and conditions named. In cells and extracts the contact can be indirect. Some binding calls cover weakened binding; strength is not graded here. Where a sequence is shown, tags or fusion partners need not be part of it.

B1: DacC(ΔC)-Flag (chromosomal DacC without its C-terminal membrane-anchoring domain, strain MG1655 DacC(ΔC)-Flag) (domain or fragment, UniProt P08506 28-378)
chain: AEQTVEAPSVDARAWILMDYASGKVLAEGNADEKLDPASLTKIMTSYVVGQALKADKIKLTDMVTVGKDAWATGNPALRGSSVMFLKPGDQVSVADLNKGVIIQSGNDACIALADYVAGSQESFIGLMNGYAKKLGLTNTTFQTVHGLDAPGQFSTARDMALLGKALIHDVPEEYAIHKEKEFTFNKIRQPNRNRLLWSSNLNVDGMKTGTTAGAGYNLVASATQGDMRLISVVLGAKTDRIRFNESEKLLTWGFRFFETVTPIKPDATFVTQRVWFGDKSEVNLGAGEAGSVTIPRGQLKNLKASYTLTEPQLTAPLKKGQVVGTIDFQLNGKSIEQRPLIVMENVEEGG
Regarding B1, the binding result in assay [1] was “no binding”; in assay [2] it was “no binding”; in assay [3], “no binding”; in assay [4] it was “binds”.

B2: DacC-Flag (chromosomal DacC with a 3xFlag at its C terminus, strain MG1655 DacC-Flag) (enzyme, UniProt P08506 28-400)
chain: AEQTVEAPSVDARAWILMDYASGKVLAEGNADEKLDPASLTKIMTSYVVGQALKADKIKLTDMVTVGKDAWATGNPALRGSSVMFLKPGDQVSVADLNKGVIIQSGNDACIALADYVAGSQESFIGLMNGYAKKLGLTNTTFQTVHGLDAPGQFSTARDMALLGKALIHDVPEEYAIHKEKEFTFNKIRQPNRNRLLWSSNLNVDGMKTGTTAGAGYNLVASATQGDMRLISVVLGAKTDRIRFNESEKLLTWGFRFFETVTPIKPDATFVTQRVWFGDKSEVNLGAGEAGSVTIPRGQLKNLKASYTLTEPQLTAPLKKGQVVGTIDFQLNGKSIEQRPLIVMENVEEGGFFGRVWDFVMMKFHQWFGSWFS
For the molecule B2, the binding entry in assay [1], in assay [2], in assay [3] and in assay [4] was “binds” in each case.

B3: DacA-Flag (chromosomal DacA with a 3xFlag, strain MG1655 DacA-Flag) (enzyme, UniProt P0AEB2 30-403)
chain: DDLNIKTMIPGVPQIDAESYILIDYNSGKVLAEQNADVRRDPASLTKMMTSYVIGQAMKAGKFKETDLVTIGNDAWATGNPVFKGSSLMFLKPGMQVPVSQLIRGINLQSGNDACVAMADFAAGSQDAFVGLMNSYVNALGLKNTHFQTVHGLDADGQYSSARDMALIGQALIRDVPNEYSIYKEKEFTFNGIRQLNRNGLLWDNSLNVDGIKTGHTDKAGYNLVASATEGQMRLISAVMGGRTFKGREAESKKLLTWGFRFFETVNPLKVGKEFASEPVWFGDSDRASLGVDKDVYLTIPRGRMKDLKASYVLNSSELHAPLQKNQVVGTINFQLDGKTIEQRPLVVLQEIPEGNFFGKIIDYIKLMFHHWFG
Regarding B3, the binding result in assay [1], in assay [2], in assay [3] and in assay [4] was “binds” in each case.
